# Source: the supplement of paper PMC7826260
# The list shows a part of the results. Viral Rep nickase domains cut single-stranded DNA in vitro for 1 h at 37 °C with 3 µM enzyme; only the middle of the 90-letter strands is printed. Numbers give uncut DNA relative to the enzyme-free pool, as log2; more negative means more cut, near 0 not cut, and no call is made. Shares of all reads are compared, so uncut sequences can rise above 0 when many others are cut.
# Experiments:
# Assay in all cases: uncleaved DNA left, log2 of reads against the no-enzyme library (log2 ratio); higher = less cleavage (more negative = more Rep cleavage of the k-mer); sequences stand for … in CTCGTCCG…ACCGGAGA
# [1] = tested on: T1, Rep nickase domain of Muscovy duck circovirus
# T1 sequence (Rep 1-111, printed without the tag): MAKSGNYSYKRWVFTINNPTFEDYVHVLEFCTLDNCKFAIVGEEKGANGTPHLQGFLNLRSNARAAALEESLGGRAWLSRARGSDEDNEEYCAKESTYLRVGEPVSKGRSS
# Procedure: (§1)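 A pool of 90-nt single-stranded DNAs with seven random bases just before the constant AC of the nick site (name = the seven bases) was cut by 3 µM recombinant His6-SUMO-tagged Rep nickase domain (300 nM DNA, 50 mM HEPES pH 8.0, 50 mM NaCl, 1 mM MnCl2, 1 h, 37 °C, three replicates). Uncut DNA was amplified and sequenced.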
# [2] = tested on: T2, Rep nickase domain of banana bunchy top virus
# T2 sequence (Rep 1-94, printed without the tag): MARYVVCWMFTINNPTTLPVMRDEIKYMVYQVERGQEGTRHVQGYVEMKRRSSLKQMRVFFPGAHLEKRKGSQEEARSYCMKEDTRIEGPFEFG
# Procedure: as §1
# [3] = tested on: T3, Rep nickase domain of cabbage leaf curl virus
# T3 sequence (Rep 1-116, printed without the tag): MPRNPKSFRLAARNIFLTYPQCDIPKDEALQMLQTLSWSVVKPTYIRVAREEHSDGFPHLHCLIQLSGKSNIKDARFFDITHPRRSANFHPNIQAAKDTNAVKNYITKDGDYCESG
# Procedure: as §1
# [4] = tested on: T4, Rep nickase domain of chickpea chlorotic dwarf virus
# T4 sequence (Rep 1-124, printed without the tag): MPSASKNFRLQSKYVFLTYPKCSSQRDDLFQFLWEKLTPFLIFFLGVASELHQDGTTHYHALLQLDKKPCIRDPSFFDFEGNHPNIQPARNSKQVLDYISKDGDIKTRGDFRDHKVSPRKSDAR
# Procedure: as §1
# [5] = tested on: T5, Rep nickase domain of faba bean necrotic yellows virus
# T5 sequence (Rep 1-98, printed without the tag): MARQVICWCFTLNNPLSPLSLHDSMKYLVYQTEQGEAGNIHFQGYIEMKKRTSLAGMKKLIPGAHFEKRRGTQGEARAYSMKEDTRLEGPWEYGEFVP
# Procedure: as §1
# [6] = tested on: T6, Rep nickase domain of maize striate mosaic virus
# T6 sequence (Rep 1-117, printed without the tag): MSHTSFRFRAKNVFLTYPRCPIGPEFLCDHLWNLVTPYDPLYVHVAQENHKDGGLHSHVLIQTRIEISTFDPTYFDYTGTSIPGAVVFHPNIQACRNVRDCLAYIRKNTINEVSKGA
# Procedure: as §1
# [7] = tested on: T7, Rep nickase domain of porcine circovirus 2
# T7 sequence (Rep 2-116, printed without the tag): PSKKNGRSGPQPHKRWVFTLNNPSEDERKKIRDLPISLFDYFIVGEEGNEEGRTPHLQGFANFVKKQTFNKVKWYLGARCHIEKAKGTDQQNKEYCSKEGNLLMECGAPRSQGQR
# Procedure: as §1
# [8] = tested on: T8, Rep nickase domain of tomato golden mosaic virus
# T8 sequence (Rep 1-124, printed without the tag): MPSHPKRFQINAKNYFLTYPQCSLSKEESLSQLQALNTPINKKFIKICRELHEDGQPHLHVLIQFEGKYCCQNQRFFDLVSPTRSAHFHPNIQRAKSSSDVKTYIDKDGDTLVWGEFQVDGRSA
# Procedure: as §1
# [9] = tested on: T9, Rep nickase domain of tomato yellow leaf curl virus
# T9 sequence (Rep 1-136, printed without the tag): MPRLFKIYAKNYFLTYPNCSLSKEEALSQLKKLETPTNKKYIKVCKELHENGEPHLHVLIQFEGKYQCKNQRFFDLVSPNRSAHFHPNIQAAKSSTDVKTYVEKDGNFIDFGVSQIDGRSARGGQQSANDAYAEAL
# Procedure: as §1
# [10] = tested on: T10, Rep nickase domain of wheat dwarf virus
# T10 sequence (Rep 1-137, printed without the tag): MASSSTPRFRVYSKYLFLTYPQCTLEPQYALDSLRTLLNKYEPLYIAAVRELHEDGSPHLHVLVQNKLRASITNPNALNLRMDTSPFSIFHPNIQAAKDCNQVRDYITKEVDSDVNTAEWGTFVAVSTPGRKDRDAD
# Procedure: as §1
Sequence,uncleaved DNA left (log2) [1],uncleaved DNA left (log2) [2],uncleaved DNA left (log2) [3],uncleaved DNA left (log2) [4],uncleaved DNA left (log2) [5],uncleaved DNA left (log2) [6],uncleaved DNA left (log2) [7],uncleaved DNA left (log2) [8],uncleaved DNA left (log2) [9],uncleaved DNA left (log2) [10]
GTGGCAA,-0.0905,0.124,0.686,1.55,0.00354,2.14,0.201,-0.014,0.12,0.114
GATCGGA,0.113,0.0125,0.256,0.633,-0.00138,0.43,0.0427,0.0517,0.001,0.128
CTGTGCC,0.148,-0.0701,-0.205,-0.533,-0.00489,-0.823,0.00815,-0.0945,0.00702,-0.0947
CAAGAGG,0.077,0.173,0.217,0.909,0.144,0.163,0.203,0.16,0.0697,0.176
GGGCTTA,-0.021,-0.0309,0.821,1.73,-0.0172,2.12,0.152,-0.0789,0.119,-0.0636
CTGGAGC,-0.1,-0.126,-0.419,-0.318,-0.139,-0.934,0.0182,-0.117,-0.0755,-0.174
GAAGGTT,0.172,0.0397,0.248,0.722,0.0589,1.76,0.186,0.305,-0.0942,0.127
AAGGCCT,-0.171,-0.117,0.0405,-0.443,-0.159,0.801,-0.597,0.0798,-0.131,0.00393
CGGCAAT,-0.0695,0.13,0.59,1.16,0.0955,1.41,0.202,-0.034,-0.0474,0.13
CATCGAA,-0.0262,-0.124,-0.529,-0.739,-0.0913,-1.25,-0.0568,-0.078,-0.188,-0.182
TTGGCCT,-0.0161,-0.0508,-0.136,-1.1,-0.135,-0.298,-0.064,-0.0998,-0.02,-0.0637
AGCTGCT,-0.153,-0.0432,-0.12,0.386,-0.0841,0.272,-1.9,-0.0179,0.054,0.0235
CGGTCGC,-0.169,-0.0531,0.139,1.12,-0.129,1.08,-0.0363,-0.0568,-0.0483,-0.146
GGTAAAA,0.115,0.167,0.6,1.43,0.0607,1.91,0.274,0.159,0.266,0.239
TACAGTA,-0.104,-0.0677,-0.299,-2.31,-0.101,-0.645,-0.333,-0.0441,-0.105,-0.108
GCTCATG,0.0734,0.0981,-0.206,0.0887,0.0553,-0.788,0.164,0.128,0.156,0.0899
AATTACA,-2.44,-0.77,-0.597,-3,-0.0588,-0.836,-2.09,-0.0725,0.0728,-0.119
AGTGAGA,0.0301,0.0277,-0.07,0.0977,0.0543,-0.268,-0.0146,0.00874,-0.0564,0.0184
TACCGTT,-0.0757,-0.174,-1.25,-2.78,-0.0614,-0.898,-2.96,-0.26,-0.085,-0.248
TCATTCT,-2.23,-0.0469,-1.94,-2.9,-0.0362,-1.35,-1.94,-0.208,0.0104,-0.142
GTCTCAA,0.186,0.246,0.46,0.955,0.214,1.87,0.15,0.216,0.124,0.151
TACTAGT,-3.54,-3.09,-3.05,-2.49,-0.145,-0.472,-3.74,-0.223,-0.0749,-0.149
TAGCATT,0.0815,-0.0083,-0.729,-2.36,-0.0724,0.25,-3.58,-0.268,0.119,0.0305
CAACGTG,0.0568,0.167,-0.531,-0.911,0.12,-1.07,0.186,0.102,0.243,-0.0175
GAGGTAC,-0.0345,0.0017,0.42,1.07,-0.167,1.66,0.116,-0.0211,-0.0496,0.026
GTTCAGG,0.00275,-0.0588,0.347,1.26,-0.0133,1.71,0.0669,0.0738,-0.109,0.1
TAAGCAC,-0.00586,-0.121,-0.264,-0.844,-0.113,-0.81,-0.0395,-0.0782,-0.0837,-0.185
GGCGCTC,-0.0896,-0.0714,0.22,0.795,-0.143,1.24,0.0307,-0.181,-0.0895,-0.0529
CACCGCC,0.0506,-0.0198,-0.106,-0.322,0.0581,-0.757,0.0672,0.0325,-0.105,-0.0557
GGAGGCC,0.000455,-0.0249,0.648,1.41,-0.0673,1.76,0.161,0.0253,-0.012,0.158
